According to the RNAGym collection of RNA variant scans (doi:10.1073/pnas.2313332121):
Variants at the floor of the assay are shown more often than the library holds them.

B1: TPR 5TU (parent)
chain: GGAUCUUCUCGAUCUAACAAAAAAGACAAAUCUGCCACAAAGCUUGAGAGCAUCUUCGGAUGCAGAGGCGGCAGCCUUCGGUGGCGCGAUAGCGCCAACGUUCUCAACUAUGACACGCAAAACGCGUGCUCCGUUGAAUGGAGUUUAUCAUG

Variants of: B1
Test: polymerase ribozyme fitness, log enrichment relative to wild type (log ratio); higher = more active; in vitro selection for triplet polymerase activity
How it was run: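 Streptavidin-bead capture of gel-excised extended constructs, followed by RT-PCR, closed a single triplicate in vitro selection round. That round began by annealing PCR-built, transcribed mutant libraries of each subunit of a heterodimeric triplet polymerase ribozyme with a biotinylated primer, the partner subunit and triplets, then incubating them frozen at −7 °C. After Illumina sequencing of inputs and outputs, genotypes needed ≥10 input reads and ≥1 read per output. Fitness is the base-2 logarithm of genotype enrichment over wild-type enrichment, using inverse-variance-weighted replicate averages.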

Variant	polymerase ribozyme fitness (log ratio)
C14A A39C A73C G94A C99G C116U A121C	≤ -4.2
A12U G50A G80C C85U C95A	≤ -4.2
C14G A26G G58U C72U A122G	≤ -4.2
C14G A23G C76G U82A G83C G133A	≤ -4.2
C14A A26U G46A C85U C105A A113G C114A G128A A147G	≤ -4.2
C14G A17U C18U C105A A110G U135A U148G	≤ -4.2
U13A A73U A91G A121U A122G G141C U151A	≤ -4.2
U13C A16U C36G C118A G140C G143A	≤ -4.2
C14G A16C G70A C108A A113U A120U G143A	≤ -4.2
U13C C69A C87G A97U A147U	≤ -4.2
U13A U56G A64U G88U U127G G133U	≤ -4.2
U13G C54G	-3.62
C14G A39U A120G	≤ -4.2
C14A A29G G70C G140U	≤ -4.2
C14A G42A U56A C79G C99G C118U G143C	≤ -4.2
U13G U33A C54U G83A C103G C125A	≤ -4.2
C14G A26U C27G C35A A52C A91G A107G G126U U130A	≤ -4.2
A12U A20U C36A A119U	≤ -4.2
C14G A49G A52C C69G G94U A110G A147C	≤ -4.2
C14A A19G C57A G68C G92U C103G A119C U127A A138G	≤ -4.2
U13G C27G U44A A106U C125U	≤ -4.2
C14A A47G C85U C105A G128C A137C A150C	≤ -4.2
A12U U56A C93U A147G	-1.6
U13A C14U C43A G65C G83C U90C	≤ -4.2

Variant	polymerase ribozyme fitness (log ratio)
U13A A23U C38U A40C A60U G68C U102A	≤ -4.2
C14A A40U C93A C105A U146C	≤ -4.2
U13C G48U G83A G92A	≤ -4.2
U13G A47C G88C A91U C105U	≤ -4.2
U13G G70A G81C G92C A121C	≤ -4.2
U13G A16U A52U C63U C103U	≤ -4.2
A12U C35G A52G C54G C105G C125U G140U A142U A147G	≤ -4.2
A12U A49C G100U U146G	≤ -4.2
C14A G42C C95U C105U	≤ -4.2
U13G A22U C93G A107G C108G	≤ -4.2
A12U A20G C76A A97U C103A	≤ -4.2
U13A A21G G50A C51U U61G U82G U90A G92A A106C	≤ -4.2
C14A A17G A23C G81C G83U C87A A97G U134C	≤ -4.2
U13C G58U G94U C95U A142G U144G	-4.05
C14A A21C U45A A60U G62A A91G	≤ -4.2
A12U A21G C35U G86A C105G A107U C149A A150G	≤ -4.2
C14A A20C C27G	≤ -4.2
A12U C57G G65A	-3.18
C14A C95U	-1.38
A12U G25C A47G U56A C93G C108G	≤ -4.2
U13C C72A C85A	≤ -4.2
C14A A39U A73G C95G	≤ -4.2
A12U C38U U77A G88A U90A G92A A98G	≤ -4.2
A12U A97U	-0.954

Variant	polymerase ribozyme fitness (log ratio)
A12U U55A G59U A60G G94A	-0.00322
C14G C27U G48A C57A A60U G88C A106U	≤ -4.2
C14G A28U G50U G83A	≤ -4.2
C14G A17G C32U G81A G83C	≤ -4.2
U13C A26G A52G C54U U82A C95U A107G	≤ -4.2
C14A A26C U33C C87G A89G	≤ -4.2
C14A A64U C93U G141A	≤ -4.2
U13A A60G C85G C118G A121U U139A	≤ -4.2
A12U G46C C69U	-3.08
C14G A23C A26C G71A	≤ -4.2
A12U A22G A29C G42U C87U C93A	≤ -4.2
U13A A21C A73G C85G A89U	-2.11
U13G U56A G71A U135C	≤ -4.2
U13C U44A U56A C79U C93G C95U A115C G141U	≤ -4.2
A12U C35A U44A G92C U127A C129G G143A U151C	≤ -4.2
C14G A40G	≤ -4.2
U13A C51U U82A A91U G100A	≤ -4.2
A12U U15C A30C U31G G46C U77G A115C	≤ -4.2
U13A A28G C32U A47G C54U C85A G88U C108U G143C	≤ -4.2
C14G C38U G68U G80U A91G C103A U139C	≤ -4.2
C14G A24U U61G G80C G94A	≤ -4.2
U13C U53C G94C A98C U148G	≤ -4.2
C14A A49C C85A U90G G94U A107G G141U	≤ -4.2
C14G A24C	-3.63

Variant	polymerase ribozyme fitness (log ratio)
U13G A47G C54U C75G C85A G117A G141C U144G C149U	≤ -4.2
U13G A47U A49U C87G U101C	≤ -4.2
C14A A47G A52G U56C G88A C103G U146C A150G	≤ -4.2
U13C A19C C36G C63A C95A C96U	≤ -4.2
U13A A28U U82G C99G C103A C116G	≤ -4.2
A12U A37C U56A C76G A98G C114U U151G	≤ -4.2
A12U G59C G92A A107C G124C A142U C149A	≤ -4.2
C14G A16G A22C A60U C87U C93U A121C	≤ -4.2
A12U C54U G86C	-3.04
A12U A39C U55A A107U A115G	≤ -4.2
A12U C27G A28C C54G A91U U101A U104G C116U	≤ -4.2
U13G G94C C114G G143A	≤ -4.2
A12U A29G U53A C69G C85G G94A G143A C149U	≤ -4.2
U13G A20C A37G G62A G65C C93G	≤ -4.2
C14G A29G U77G A91C C95G U102G C116U A119G G141C	≤ -4.2
A12U A30G A39C G62C C79A C85G	≤ -4.2
A12U U44A C93U A119C	≤ -4.2
A12U A52C G62A U78G C93U	≤ -4.2
C14A A17U U56G G74A C85G C93U G141C U146G	≤ -4.2
C14A G62U	-1.57
C14G A20C G94A A110U C114U	≤ -4.2
U13A A23U U31G C35U G92U A106U C114U U148C	≤ -4.2
A12U C14G A91G C93U	≤ -4.2
C14G C27G G42A G84A C85G G128U C131G	≤ -4.2

Variant	polymerase ribozyme fitness (log ratio)
U13G A19G G42A U56A C85A G143A G152A	≤ -4.2
C14G A23G G88A	≤ -4.2
A12U A41C G59C G71U C87U U148A	≤ -4.2
C14G C38A A39C U127C A142C A150C	≤ -4.2
U13G C69U A107C A150C	≤ -4.2
C14A C38U C63U A98U C108G U109G A110C C118G G141A	≤ -4.2
U13G A91U C95U A107G G133A	≤ -4.2
U13C C14U C54A G92A	≤ -4.2
C14A C43A A52G U82A C85G C114U C123A G141A A142U	≤ -4.2
A12U A52G G94A G141C U148A	≤ -4.2
U13C A52G U102C C118G	-3.18
U13C A20C G50C	-3.15
C14G A39U G58A U61G C85U C95U A107C G141C U146C	≤ -4.2
C14G A47G U61G G88A C93U C95A A110C U134G	≤ -4.2
A12U A24C C63G C85U C87A G94C A107G G126A A137G G141U	≤ -4.2
U13C G83C C96U C114U	-4.13
U13G A20U C38U C87G G92U A110U	≤ -4.2
U13C C125A G136C U145C U146C	-3.59
C14G A19U C87G U145A	≤ -4.2
C14G C35U U56G G83A A98U A106U	≤ -4.2
C14A U135A A142C	-3.9
C14A G42U A47U A91G C96U C118U	≤ -4.2
U13A A16U A22C C32A C87A G141U C149G	≤ -4.2
C14G A26C G70C G94C G133A U144A	≤ -4.2

Variant	polymerase ribozyme fitness (log ratio)
U13G A29C U53A	≤ -4.2
A12U A52G A73U C93G A138G A142C	≤ -4.2
A12U C51U C57G C85U A91G U104G G136A	≤ -4.2
U13C A21C A23C G92U A142G A147U	≤ -4.2
C14G A66U A91C U109C C116A	≤ -4.2
U13G A66G G70A C96A	≤ -4.2
C14A U45A G92U U104G A107C	≤ -4.2
C14A A47C C85G G124U	≤ -4.2
A12U U13G A40U C69U C85G U104G U146G	≤ -4.2
A12U A28U U44A A52U C57A C69G	≤ -4.2
C14G A17U A37U A52G C57U A91U U127A U134A A150U	≤ -4.2
A12U G48U G88A C95U U134G U151G	≤ -4.2
C14G A52G C87G	≤ -4.2
C14G A19C C75U U82C C93U A97U C105G	≤ -4.2
U13G A16C A49C C95A C96G G117C	≤ -4.2
A12U A47G G50A G86A C93U G136A A150G	≤ -4.2
U13A A30C A52G C85A A110G A115C U148C	≤ -4.2
U13C A19C A22C A49U U53G C57A U111C G136U G141C	≤ -4.2
C14A C27U U77G G83C A106G	≤ -4.2
U13A G34A C43U A52C C57U G59U U77G C114U	≤ -4.2
U13G G65A G70A G94A C116U G143U	≤ -4.2
A12U G42A C85U C99G	≤ -4.2
C14A G59A G84A A106G C125G U148C C149U	≤ -4.2
C14G A22C A49G G58A A60C G83U G126U	≤ -4.2

Variant	polymerase ribozyme fitness (log ratio)
C14G C54U C76G U82C G86A A107C	≤ -4.2
C14A A23C G34U C57G G83U A98C C105A	≤ -4.2
U13G G42A G50U C76A G86C C132A	≤ -4.2
C14A U15C A19C A20C U45C G86U	-4.11
U13G A19U A28U U61A C76U A91G C132G	≤ -4.2
A12U C35G A60C U61A C76A G124U	≤ -4.2
U13G C87A U146G	≤ -4.2
C14G C36A A41U C87U	≤ -4.2
C14A C99G	-1.66
U13A A52G U56A C75U U78A C87U C93A G136C C149A	≤ -4.2
C14G A16U C18A C54G G88A A91U C99G A121U U139C	≤ -4.2
C14A A20G C38A A39G C54U A91C A106U G124C	≤ -4.2
C14G C18U C57U G65A G83A A106C G117U	≤ -4.2
C14A A41C C76U G84U	-2.89
A12U G46C A97U A110G G128C	≤ -4.2
A12U G42C C51U C93U C123A G124U	≤ -4.2
A12U A28U U102A U139G U148G	-4.1
U13G U56A C79A U104G C105G	≤ -4.2
C14G A20U G50A U56A G65U C93A C131A	≤ -4.2
U13A A20U A28C C93U G136C A137U	≤ -4.2
C14G A41C G88U A107C	≤ -4.2
C14G A23C A52C U53A C54A U55G A106C U139A	≤ -4.2
C14G A49G C57G C108U U109C C132U G133U	≤ -4.2
